Results: PubChem BioAssay (NCATS)
Several values for one entry are separate records, joined by “and”; a condition that tells them apart may be missing. Equal values may be shown once. Inconclusive means that the source gave no clear call. Such entries were picked first, then a sample of the others. Potencies of inconclusive entries are doubtful fits and often do not repeat. Activity calls are given as the source filed them. Unless noted, calls come from the whole dose curve; as a rule, active = well fitted curve in the direction sought with a large enough effect; inconclusive = small, poorly fitted or top-dose-only effect, or another doubt; inactive = no such curve, though single readings can be large; an effect the other way counts as inactive or inconclusive.

Experiments:
[1] = biological target: Aldehyde dehydrogenase, mitochondrial (Homo sapiens) (UniProt P05091); test: qHTS for Inhibitors of the Aldehyde Dehydrogenase Family (ALDH2) Confirmatory screens (AID 2061303; active = well fitted inhibition curve with a large enough effect; inconclusive = small, poorly fitted or top-dose-only effect; inactive = no such curve, though single readings can be large or run the other way; title and protocol of this record describe different tests; note: nearly all actives have a fitted effect of over 45% in size); conditions: ALDH inhibition qHTS; activity change, negative = inhibition: at 45.4 µM (top of the series)
[2] = qHTS for Inhibitors of the Aldehyde Dehydrogenase Family (ALDH1A2, ALDH1A3, ALDH2, ALDH3A1) (AID 2061307); conditions: ALDH inhibition qHTS; activity change, negative = inhibition: at 50.3 µM (top of the series) unless noted; note: test system not described further here; nearly all actives have a fitted effect of over 50% in size
[3] = biological target: Aldehyde dehydrogenase, mitochondrial (Homo sapiens) (UniProt P05091); test: qHTS for Inhibitors of the Aldehyde Dehydrogenase Family (ALDH2) Primary screen (AID 2061308); note: nearly all actives have a fitted effect of over 55% in size
[4] = biological target: Retinaldehyde dehydrogenase 3 (Homo sapiens) (UniProt P47895); test: qHTS for Inhibitors of the Aldehyde Dehydrogenase Family (ALDH1A3) Confirmatory screens (AID 2061311); conditions: activity change, negative = inhibition: at 46 µM (top of the series); note: nearly all actives have a fitted effect of over 60% in size
[5] = biological target: Retinal dehydrogenase 2 (Homo sapiens) (UniProt O94788); test: qHTS for Inhibitors of the Aldehyde Dehydrogenase Family (ALDH1A2) Confirmation screens (AID 2061314); conditions: activity, negative = inhibition: at 45.9 µM (top of the series) unless noted; note: nearly all actives have a fitted effect of over 65% in size
[6] = biological target: Retinaldehyde dehydrogenase 3 (Homo sapiens) (UniProt P47895); test: qHTS for Inhibitors of the Aldehyde Dehydrogenase Family (ALDH1A3) Primary screen (AID 2061315); conditions: ALDH inhibition qHTS; activity change, negative = inhibition: at 56 µM (top of the series) unless noted
[7] = biological target: Aldehyde dehydrogenase 1A1 (Homo sapiens) (UniProt P00352); test: qHTS for Inhibitors of the Aldehyde Dehydrogenase Family (ALDH1A1) Confirmatory screens (AID 2061316); conditions: activity change, negative = inhibition: at 47.3 µM (top of the series); note: nearly all actives have a fitted effect of over 65% in size
Potency is the fitted concentration of half-maximal effect; tags give direction and shape of the fitted curve.

Row | Structure (SMILES) | Potency [1] | Potency [2] | Potency [3] | Potency [4] | Potency [5] | Potency [6] | Potency [7]
1 | COc1ccc(-c2nc3ccccc3c(=O)n2Cc2ccccc2)cc1OCc1ccc(NC(C)=O)cc1 | inconclusive: 12.7 µM [inhibitor, partial curve] | inconclusive: 12.7 µM [inhibitor, partial curve] | inconclusive: 31.6 µM [inhibitor, partial curve, poor fit] | active: 22.5 µM | inconclusive: 15.9 µM [inhibitor, partial curve, poor fit] | inconclusive: 15.8 µM [inhibitor, single point] | inconclusive: 5.65 µM [inhibitor, full curve]
2 | O=[N+]([O-])c1cc(C(F)(F)F)ccc1N1CCN(C(=S)Nc2cc(Cl)ccn2)CC1 | inconclusive: 20.1 µM [inhibitor, partial curve] | inconclusive: 20.1 µM [inhibitor, partial curve] | inconclusive: 14.1 µM [inhibitor, partial curve, poor fit] | inconclusive: 15.9 µM [inhibitor, partial curve] | active: 14.2 µM |  | active: 5.04 µM
3 | FC(F)(F)c1cccc(N2CCN(C(=S)Nc3nccc4cccnc34)CC2)c1 | active: 11.3 µM | active: 28.2 µM | active: 7.94 µM | active: 11.3 µM | active: 10.1 µM | inconclusive: 3.98 µM [inhibitor, full curve, poor fit] | active: 7.98 µM
4 | CCOC(=O)c1[nH]c2c(c1C)C(=O)CC(c1ccco1)C2 (configuration not stated) | inconclusive: 4.49 µM [inhibitor, full curve] | inconclusive: 0.0708 µM [inhibitor, full curve, poor fit] | inconclusive: 25.1 µM [inhibitor, partial curve, poor fit] and inconclusive: 15.8 µM [inhibitor, partial curve] and inconclusive: 20 µM [inhibitor, partial curve, poor fit] | active: 12.7 µM | inconclusive: 3.57 µM [inhibitor, full curve] |  | active: 2.52 µM
5 | CC(=O)N1CCN(c2ccc(NS(=O)(=O)c3ccc4c(c3)CC(=O)N4)cc2)CC1 | inconclusive: 25.9 µM [inhibitor, partial curve] | inconclusive: 9.19 µM [inhibitor, partial curve] | inconclusive: 31.6 µM [inhibitor, partial curve] | inactive | inactive |  | inconclusive: 23.1 µM [inhibitor, partial curve]
6 | O=c1c2ccccc2nc2sc(NS(=O)(=O)c3ccc4c(c3)CCC4)nn12 | inconclusive: 11.3 µM [inhibitor, partial curve] | inconclusive: 28.3 µM [inhibitor, single point] | inconclusive: 6.31 µM [inhibitor, full curve, poor fit] | inconclusive: 25.2 µM [inhibitor, partial curve] | inconclusive: 25.2 µM [inhibitor, partial curve] |  | active: 8.96 µM
7 | Clc1cccc(-c2ccc(C3Nc4cccc5cccc(c45)N3)o2)c1 | active: 5.04 µM | active: 10.1 µM | inconclusive: 3.16 µM [inhibitor, single point] | active: 1.59 µM | active: 11.3 µM | inconclusive: 2.51 µM [inhibitor, partial curve] | inconclusive: 11.3 µM [inhibitor, partial curve]
8 | Nc1nc2c(s1)C(c1ccccc1Cl)CC(=O)N2 (configuration not stated) | inconclusive: 0.565 µM [inhibitor, full curve] | inconclusive: 1.13 µM [inhibitor, full curve] | inconclusive: 10 µM [inhibitor, partial curve] and inconclusive: 891 nM [inhibitor, full curve, poor fit] | active: 5.65 µM | inconclusive: 0.252 µM [inhibitor, full curve] | inconclusive: 3.16 µM [inhibitor, full curve, poor fit] | inconclusive: 0.565 µM [inhibitor, full curve]
